Data as given in the supplement of paper PMC11417369.
This is one part of the list.

Test system: PfAP2-HC AP2 domain (GST-tagged)
Experiment: gcPBM binding intensity (ln(normalized median fluorescence intensity)); higher = stronger DNA binding
Method in brief: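 Plasmodium falciparum DNA-binding domains carrying a GST tag were expressed in E. coli and applied for 1 h, at about 25 μg on average, to an Agilent 4 × 180k array. The array held primer-extended double-stranded 36-bp intergenic genomic probes together with negative controls, and binding took place in 1× PBS with 1% milk, 0.2 mg/ml BSA, 0.5% salmon testes DNA and 0.03% Triton X-100. An Alexa488 anti-GST antibody detected bound protein, and the array was scanned at 488 nm. Binding intensity is taken as the highest Masliner-normalised natural-log median intensity across replicate spots of either probe orientation.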

Sequence	gcPBM binding intensity (ln)
AAACAAATGTACAAAGTGCATATTTTTTTCAAAAGG	9.71
ACATATGTATAATAATGTACGCATTAAATATAATTA [XGTACX_site7851]	9.99
ATATATATATAATAAAGTACAAATTCTAAATGATAT [XGTACX_site570]	9.79
TATCTTATGTCTGAAAGTACAAATTTTTTTCTACTT [XGTACX_site2208]	9.65
ACTACGAATGGTAGAGTGCAGTCTGGAGAAAAGTAC [GTGCAC_site9681]	9.71
CTTTTTTTTTTTTTTGCGCACTGTTTAAAGGGAAAT [GTGCAC_site9815]	9.71
ATTATCTATCGTTTTTGTACTTACACCTTAATACAA [XGTACX_site7337]	9.78
AAATATTTTTAGAGTGCATGTAATAAAAATATAATG [TGCATGCA_site19]	9.66
GGGATATATTATTATACACACATATATAAAAGCTTT [CACACA_site2445]	9.81
TTAATTATATCAGGACGTACTAATATAAATATATAT [XGTACX_site8909]	9.53
AAATGAGATATAAAATGTACATATTGTAAGTAAACA [XGTACX_site1237]	9.9
GTGCAAAATATTTTTACACACAAATTTTTACAACAG [CACACA_site3357]	9.81
AAAAATAAATAAGACACACACAAAAAAAAAAAAAAA [CACACA_site1432]	9.87
ATATATATATATATATATATATATATATATTATATA [XGTACX_negctrl_site48]	9.27
AAATAATATATTCTATATAATAAATTATAAATATAA [GTGCAC_negctrl_site558]	9.53
ATATGACTGTTCATTTGTACGTATAATTATATACGT [XGTACX_site3372]	9.61
ATACAACTAATAAGTAGTACAATATACATATATTAT [XGTACX_site7086]	9.72
TTTTTTTTTTTTTTTTATTTATATATATATATATAT [CACACA_negctrl_site582]	9.5
AAAAAAAATGAAAGGTGTACACATACAAACATAGAA [XGTACX_site3517]	10.3

Sequence	gcPBM binding intensity (ln)
TAATTTAGATATATAAAGAATTAAAGTTAACATTCT [CACACA_negctrl_site726]	9.41
TTTTTCAGATCCTATATAGTATCATATAAATTCCAT [CACACA_negctrl_site56]	9.39
TTAAGAAAAAAAAAAAGTACACACATATAATATATA [XGTACX_site6268]	9.83
CGTTGGTATTAAAAGGTGCAATGAAATAATATATTA	9.55
AAGATCGCATGAAATGAACACACATAAAAAAAATAT [CACACA_site9353]	10.1
AATGTAACAACTTTTTGTACTTAAGAAATAATAAAT [XGTACX_site3310]	9.48
TAAAAAATTATATTCACACACATACCCATATATATA [CACACA_site4458]	10.5
TAAAATTTATAAACTACACACATATATATAGTAATA [CACACA_site3728]	9.77
CACAAAATAAATTAAACACACAACATCATAGATGTA [CACACA_site4619]	9.95
AATTTTTATTTGTACACACATACATATATATTATAT [CACACA_site993]	10
TTTTTATTTACACTTTTTATTTATATATTATGTACG [CACACA_negctrl_site158]	9.74
TGTCATCATCTTAAATGTACAAAAAGGAAATATAAA [XGTACX_site1529]	9.47
TTTATATATTTCATAATACACACGAAAAAAAAAAAA [CACACA_site2970]	9.59
ATAAATAATATAAATACACACTAAAAAAAATATATA [CACACA_site4456]	9.88
ATATAATCAGCTTCTCTTTTATGCTAAAAAAAAAAA [CACACA_negctrl_site1310]	9.34
TTAGTTTATTGGTACTGTACTTTTTTTTTCTCCATT [XGTACX_site8618]	9.64
TATCATATATGAAGGTGTACGATTTATTATATAAAT [XGTACX_site7010]	9.56
ATTTTTGAACGGTACAGTACAGAATTTAATTAACCC [XGTACX_site47]	9.6
TTGCATTACGAACATACACACAGAATAACTGAAAAC [CACACA_site3025]	9.84

Sequence	gcPBM binding intensity (ln)
TTCGATGAATATACAAGTACATATCCTTACGAACTG [XGTACX_site1650]	9.45
TTTTTATTAAGACATGCATGGAAACGCACTATTTTA [TGCATGCA_site999]	9.61
ATACGAAGTACGTACACACACTTATATGTTACTAAA [CACACA_site7812]	10.3
TATATATGCATTAAATGATGTTCCTGTTTTTTAAAA [CACACA_negctrl_site1378]	9.51
TTTATATCATTTCTTAAAAAAAAGGAGGTAATAGAC [TGCATGCA_negctrl_site555]	9.68
AATAAATAAATATATACACACATATATGTCTACATA [CACACA_site3158]	10.1
AAGTTACAGAATATCACACATAAATTATCTGTATAT [CACACA_site5116]	9.62
GTTAAGCAATATATATGTACTTATGGAATAGAAAAA [XGTACX_site3693]	9.64
TCAATTAATTATTTTTGTACACAAGAATTACTGAAT [XGTACX_site6401]	9.61
GTGTGATATAATTTTTTTAGAGCTTTATAATATTAT [CACACA_negctrl_site233]	9.61
TATGTTGATGATATTACACACCCAATGAGAAAAGGA [CACACA_site7060]	9.82
CAACCATTTGTAGGTAAACACACATTATTATTAATA [CACACA_site8842]	9.7
TGTTTATACATCAGGTGTACGCAAAATAATTGTATG [XGTACX_site206]	9.63
TTTATTTACTATTAAAGTACTAAATCATATAATTAT [XGTACX_site2580]	9.62
TATACATATACATATACACACACACCCATAAATAAA [CACACA_site8372]	10.6
TTAACACATGCTTGGTCACACACGTATGCATATTTA [CACACA_site2127]	9.97
TTTGTCAAATAATATTGTACTAAAAAATTTTGCCTT [XGTACX_site7485]	9.41
TATTTGTAATATAACACACACAAAAAAAGACTCGGA [CACACA_site1681]	10.3
